# This is one part of the list.
# T1: UNK ZnF1-3 (human, UniProt Q9C0B0 31-174)
# T1 sequence: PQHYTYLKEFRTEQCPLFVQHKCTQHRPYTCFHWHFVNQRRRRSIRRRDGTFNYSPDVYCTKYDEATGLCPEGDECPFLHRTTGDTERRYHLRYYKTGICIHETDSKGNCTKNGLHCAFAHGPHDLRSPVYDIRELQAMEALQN
# B1: chrX:100668114:100668115:+_ENSG00000126945_ENST00000316594|hu_mus|FALSE|FALSE (ssRNA)
# RNA: GGGAGUUCUACAGUCCGACGAUCUCCCAUCAUCUGGCUACCGUAAGCACCACCACUUGCCCCUGCUGUAGAAUUCAAAAAGAGCUCUACAUAGCUAUGAUCAUAAGCUCCUCCACUUGUCCCUGCGGUAGAAUUCAAGAAGAGCAACAGAGGAUUGAGCAUCA
# B2: chr2:100010981:100010982:+_ENSG00000158417_ENST00000289371|hu_mus|FALSE|FALSE (ssRNA)
# RNA: GGGAGUUCUACAGUCCGACGAUCUUCCAACAUCACUGAAGCCUUCAUAACGUCCUUUUUAUGGACUGGGCCAAUGUUAAUUCCUGCAUAUGGCACCUCUGAUGUUUUCAGAAAUUCAAGAAGAGCUUCCAAAGAGCCCAGUGUCAACAGAGGAUUGAGCAUCA
# B3: 112341754_112342337_807_CDS_ENSG00000108055_ENST00000361804|human|control|control (ssRNA)
# RNA: GGGAGUUCUACAGUCCGACGAUCCUCUCGCUUAGCAGAAAGCUCAUCAAGUUUGGCACGAGUCUCGUUAAGUUCCUGAUUGUAAAUGGUAUAUUCCAGGGCUCGUCUCAUUUUAUCCCACUUCUGAUACUGAGCUAGUUCUUCCAACAGAGGAUUGAGCAUCA
# B4: chrX:70775091:70775092:+_ENSG00000147162_ENST00000373719|hu_hu|FALSE|FALSE (ssRNA)
# RNA: GGGAGUUCUACAGUCCGACGAUCAUCAGGGAAAUGUGGUUGUAGUUCGAUAGCCCGCCUGUAGGUGUCUAUUGCCAGAUCUAUCAGGCCUUGCUCAUAGUAUACACAAGCCAGGUUGCCGUGCACCACUGCGUGAUUUGGACUCAACAGAGGAUUGAGCAUCA
# B5: chr1:46159212:46159213:+_ENSG00000159596_ENST00000372025|hu_mus|hu_hu_hu_mus_True|1_1 (ssRNA)
# RNA: GGGAGUUCUACAGUCCGACGAUCUCUGAUCCCUCCCAAGAAAGCUAGGAAACCGGCUCCAUAAGCCAUCUGAGUGAAAGCUAGGACGGGGAUAUAAGACUUUGUUAUUACCAUGAGAAGUGGGGGAGCAGUAAAGGGGAUUAGCAACAGAGGAUUGAGCAUCA
# B6: 113130990_113140974_2106_CDS_ENSG00000149294_ENST00000316851|human|control|control (ssRNA)
# RNA: GGGAGUUCUACAGUCCGACGAUCGAAGAUGACGAUGAGGAUGCCCACGAUGGCCCCGGUGCUCAGGCCUGAGGUGGGGCUGCCGUUGGCUGGGAUGGCUGUGGGCUGGGCCGAGGUCCUGAACACAAAAUGAGCCGCCUUGGACAACAGAGGAUUGAGCAUCA
# B7: 78798891_78799011_3486_CDS_ENSMUSG00000033088_ENSMUST00000109689|mouse|control|control (ssRNA)
# RNA: GGGAGUUCUACAGUCCGACGAUCCUCUUGCCCGAAGAGGCGCUCCACCUCUGCUCGGCCAGGGCUGCGGGUACGGCCCUCGUUGCUGCCCUGUGCCUGGGGCUCUGGCCCCCUCUGAGCCAGCCUCCUGGGUGGGGGCAGGUCCAACAGAGGAUUGAGCAUCA
# B8: 88187188_88193511_567_CDS_ENSMUSG00000036902_ENSMUST00000109686|mouse|control|control (ssRNA)
# RNA: GGGAGUUCUACAGUCCGACGAUCGAGCUCAAACUGGCAAUCUCCAAGGUAAGUAAAGUCUGGAUCUGGGAUGAAUGAGUAUUUUGCUCGAAAUCCUAGUCCUUCAAGUUCUUCAUCAGAACUAAAUUUAAUCCACAUGAAUCUCAACAGAGGAUUGAGCAUCA
# B9: 28111919_28113614_405_CDS_ENSMUSG00000024219_ENSMUST00000088027|mouse|control|control (ssRNA)
# RNA: GGGAGUUCUACAGUCCGACGAUCUACUAUCUGGGCGUCUCCUUUCCACGCUGCCAAGUGCAGCGGGUAGCAGCCUUUCGAGUCAGCAACGUUGGUCAGCGCGUCGUUCCUCAGAAGGACCUCGACCACAUCCCUGUGUCCAUUCAACAGAGGAUUGAGCAUCA
# B10: chr7:141441981:141441982:+_ENSG00000106028_ENST00000265304|hu_mus|FALSE|FALSE (ssRNA)
# RNA: GGGAGUUCUACAGUCCGACGAUCCUCAUGUCUUACAAACUGACGAAAUACCUGUAACACAGGUCUUCGAAACAUGGCUUCUGUUUUUCUUACAACCUAAUCUUUAGGCUUUUCCUAAAGGAAAGAAAGAAAAGAGAAAAAUGACAACAGAGGAUUGAGCAUCA
# B11: 111715549_111715669_7498_ncRNA_ENSMUSG00000033209_ENSMUST00000156290|mouse|control|control (ssRNA)
# RNA: GGGAGUUCUACAGUCCGACGAUCGGAGGGAUGGUAUCAGUGGCUAUGUGGGUGGGUGACCACGCUGCAUCAGGGGCCCCGGGACUCUGGCUGGAGUGUGCACUGAGUUGGGGGCAAGAAGCUGCUUUAACAUUUGGAGGAAGGCAACAGAGGAUUGAGCAUCA
# B12: chr12:42180722:42180723:-_ENSMUSG00000036295_ENSMUST00000043884|mus_hu|mus_mus_mus_hu_True|38_108 (ssRNA)
# RNA: GGGAGUUCUACAGUCCGACGAUCCUGUAGGAGCAGAAUCUGUGUGUUAGCUGGCAAUCUGGCUGGGAAAGUUAAAAGACCUAAAUCAUUACAAUCCACUGUCGAUGCUUCCAUAUAAAUGGAUCUGGGUGUAAACCAAGGCCUCAACAGAGGAUUGAGCAUCA
# B13: chr14:103803487:103803488:+_ENSG00000100664_ENST00000558506|hu_mus|hu_hu_hu_mus_True|78_78 (ssRNA)
# RNA: GGGAGUUCUACAGUCCGACGAUCGAGUUUAUGAUGUGUGUCAAGCAUGCCUCGGUAGCCACAGGCUUUACAAGAAUUACCUAUUGUUUGCUUCUUUGGAUUGACAUGCAGAUCUGUUUCAGGAUUCUCACACUCAGGACAGAGCAACAGAGGAUUGAGCAUCA
# B14: 53458436_53458556_859_CDS_ENSG00000177613_ENST00000331173|human|control|control (ssRNA)
# RNA: GGGAGUUCUACAGUCCGACGAUCUCCAAGUUGGGGCUGCAUUGCUCCUCCAGGAGUUAAGGAACCAGGACCAGCUCCGGGAACUGCAGCUGGUAUUGGCCCUGGAGCUGGAAUUCCACCCUGGAUAGGAGUCUGCAUCAGAGGCAACAGAGGAUUGAGCAUCA
# B15: chr1:114340281:114340282:-_ENSG00000081019_ENST00000261441|hu_mus|motif|central (ssRNA)
# RNA: GGGAGUUCUACAGUCCGACGAUCGUAUGCAUGAAGGACAAGAGCACCCCCAUUGGACUGGUGUUCUUCGUGAAUAAAGUUGCGGAAUUUAGUACCUGUUUUUAAGAAAUUUCUGCGAAUAGAAUGUUCUUGGUGCGUUGUAAACAACAGAGGAUUGAGCAUCA
# B16: chr10:1042047:1042048:+_ENSG00000107937_ENST00000545048|hu_mus|FALSE|FALSE (ssRNA)
# RNA: GGGAGUUCUACAGUCCGACGAUCGUACAGAGAAUCACCAUAUUUCAUAAGACGCACAUAAUCUUUAGCAACAUUGUCCACCAAGUUUUUGGCAAUAUUUAUUUGACCUAGAGCCAACUUGUAGUGAUCCUUGUCAUAGAGAAUCAACAGAGGAUUGAGCAUCA
# B17: chr14:76904430:76904431:+_ENSMUSG00000022010_ENSMUST00000022587|mus_mus|mus_mus_mus_hu_True|78_108 (ssRNA)
# RNA: GGGAGUUCUACAGUCCGACGAUCUGCUGGAAAAAAAACCCUCGUGGAAAAAAAGAGCAAGCUCCAGCAGCCUUGUAUAAGCUAGAUAAAAUCUUCUGGCUUUCCGCAGCCCAGGGAGAAACAGAAAACGGCAGCCCUAAUUUACAACAGAGGAUUGAGCAUCA
# B18: chr12:45699863:45699864:+_ENSMUSG00000020598_ENSMUST00000020939|mus_hu|FALSE|FALSE (ssRNA)
# RNA: GGGAGUUCUACAGUCCGACGAUCUGGAGCAUUUUUCAUGCAUCAUAUUGAACUGUAUCCUGCAGAGGAAAUAACAGGAUCUGUUGGUGAUGUUGCAUUAUUUUUUAUCAGUUCUGAGGAAAUCAAGAAUACCCAUUUUGAAUGCAACAGAGGAUUGAGCAUCA
# B19: chr7:103008174:103008175:+_ENSG00000161057_ENST00000292644|hu_hu|FALSE|FALSE (ssRNA)
# RNA: GGGAGUUCUACAGUCCGACGAUCACUCAUUGAACGAGCGUGAAUCUUAAAUAUGUGGGUCCGACCCUCUAGAUCGGGCAAGCUAAAUUCAAUUUUUCUAUCCAAUCUCCCUGGCCUCAUCAGUGCUGGAUCCAAAGUAUCAGGCAACAGAGGAUUGAGCAUCA
# B20: chr3:51261291:51261292:+_ENSMUSG00000063273_ENSMUST00000029303|mus_hu|FALSE|FALSE (ssRNA)
# RNA: GGGAGUUCUACAGUCCGACGAUCUUCAGCUUCUUUAAUCAGGUUGGCUUUUAGCAUGUAUUUUGCACAUUUGGAGUUGAUAAAUCUGUCUGCUGUGUCCAAGGCCUGGGCCUCAUCCAUCCACCUUGCAGCUUCUUUAAUAUUCAACAGAGGAUUGAGCAUCA
# B21: chr7:54823571:54823572:-_ENSG00000132432_ENST00000352861|hu_mus|hu_hu_hu_mus_False|28_98 (ssRNA)
# RNA: GGGAGUUCUACAGUCCGACGAUCUCCCAUGAUAGCAAAUCCUAUUGCUGUAGCCAUGGCAAUCUUCUGGAAUUCUUUUCUGUCGGGUUUGGUGCAUCUUUUAACCAGCCGAAUGGAGUCCUUUACAAACUGCCGGCUGGGCUCCAACAGAGGAUUGAGCAUCA
# B22: chr18:47247233:47247234:+_ENSMUSG00000042705_ENSMUST00000049388|mus_mus|motif|central (ssRNA)
# RNA: GGGAGUUCUACAGUCCGACGAUCACGGCCUGCGGCUGCUUCCCUAAUUAAUUACUGUAAUGAGUAAGGUUUCAUACUCUGCGGGGGCACCAUCAUACCUUCUGCCUACAGACCUUCCCUGAUCCCUGAAAGCAAUCUGACAGACAACAGAGGAUUGAGCAUCA
# Molecular target: T1, UNK ZnF1-3
# Test: nsRBNS (natural sequence RNA bind-n-seq); RBNS binding buffer (assumed for nsRBNS): 25 mM Tris pH 7.5, 150 mM KCl, 3 mM MgCl2, 0.01% Triton X-100, 500 ug/ml BSA, 20 U/ml SUPERase-In, 4 C; UNK is unkempt and MSI1 is Musashi-1; names of the RNAs are library labels; protein concentration not given here; high values mean tight binding
row,Binder,binding signal
1,B1,1.65 enrichment R
2,B2,0.872 enrichment R
3,B3,0.614 enrichment R
4,B4,0.708 enrichment R
5,B5,0.957 enrichment R
6,B6,1.35 enrichment R
7,B7,0.399 enrichment R
8,B8,0.867 enrichment R
9,B9,0.515 enrichment R
10,B10,0.637 enrichment R
11,B11,1.67 enrichment R
12,B12,1.19 enrichment R
13,B13,1.13 enrichment R
14,B14,0.671 enrichment R
15,B15,1.02 enrichment R
16,B16,0.667 enrichment R
17,B17,2.03 enrichment R
18,B18,0.944 enrichment R
19,B19,1.02 enrichment R
20,B20,0.582 enrichment R
21,B21,0.733 enrichment R
22,B22,0.977 enrichment R

# Source: PMC12136788
